The list shows a part of the results, in another mix than the full data. For some of these results: At the low end of the ranking the order means little. The list shows a part of the results. For some of these results: Construct or isoform of the protein are uncertain.
Tests used:
Test in all cases: universal protein binding microarray (PBM)
Conditions in all cases: transcription factors of Arabidopsis thaliana; high values mean tight binding; most listed sequences are background and not binding sites; double strand, one strand shown
GST-NTL6(1-168) = GST-NTL6(1-168) (UniProt Q9SCK6)
GST-ANAC055(1-171) = biological target: T1, GST-ANAC055(1-171) (UniProt Q9LDY8)
T1 sequence: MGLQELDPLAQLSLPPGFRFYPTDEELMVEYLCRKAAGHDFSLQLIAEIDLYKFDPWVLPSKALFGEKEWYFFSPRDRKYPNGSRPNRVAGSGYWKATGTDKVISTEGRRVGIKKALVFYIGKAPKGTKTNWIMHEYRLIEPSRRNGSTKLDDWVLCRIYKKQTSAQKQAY

GST-ATAF1 NAC domain = biological target: T2, GST-ATAF1 NAC domain (UniProt Q39013)
T2 sequence: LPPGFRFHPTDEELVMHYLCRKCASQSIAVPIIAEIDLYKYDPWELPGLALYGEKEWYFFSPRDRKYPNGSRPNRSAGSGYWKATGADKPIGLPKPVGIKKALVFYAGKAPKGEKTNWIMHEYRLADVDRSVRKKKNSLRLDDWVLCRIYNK

[1] = biological target: T3, GST-ANAC092(1-285) full length (UniProt Q9FKA0)
T3 sequence: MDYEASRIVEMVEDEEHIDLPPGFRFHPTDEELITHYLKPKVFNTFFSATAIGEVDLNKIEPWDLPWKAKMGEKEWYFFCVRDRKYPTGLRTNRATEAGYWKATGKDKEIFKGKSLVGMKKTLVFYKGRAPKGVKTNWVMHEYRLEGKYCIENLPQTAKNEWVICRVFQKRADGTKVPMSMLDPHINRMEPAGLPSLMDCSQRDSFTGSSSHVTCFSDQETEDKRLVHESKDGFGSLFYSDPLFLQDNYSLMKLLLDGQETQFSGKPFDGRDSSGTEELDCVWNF

GST-SND1(1-203) = biological target: T4, GST-SND1(1-203) (UniProt Q9LPI7)
T4 sequence: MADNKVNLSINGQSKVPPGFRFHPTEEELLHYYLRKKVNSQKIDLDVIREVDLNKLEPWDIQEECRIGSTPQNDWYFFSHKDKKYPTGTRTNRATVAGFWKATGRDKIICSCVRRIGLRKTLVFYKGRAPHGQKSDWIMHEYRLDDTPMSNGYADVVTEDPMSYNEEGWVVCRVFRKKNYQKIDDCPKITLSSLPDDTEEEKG

[2] = biological target: T5, GST-VOZ2 (Arabidopsis thaliana) (UniProt Q9SLB9)
T5 sequence: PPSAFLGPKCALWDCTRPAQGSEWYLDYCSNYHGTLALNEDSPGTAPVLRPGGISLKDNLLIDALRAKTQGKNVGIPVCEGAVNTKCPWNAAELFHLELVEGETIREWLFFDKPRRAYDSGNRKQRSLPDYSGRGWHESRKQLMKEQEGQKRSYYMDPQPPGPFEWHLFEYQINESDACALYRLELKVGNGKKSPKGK

GST-WRKY1(266-371) = GST-WRKY1(266-371) (UniProt Q9SI37)
GST-ANAC092(1-176) = biological target: T6, GST-ANAC092(1-176) (UniProt Q9FKA0)
T6 sequence: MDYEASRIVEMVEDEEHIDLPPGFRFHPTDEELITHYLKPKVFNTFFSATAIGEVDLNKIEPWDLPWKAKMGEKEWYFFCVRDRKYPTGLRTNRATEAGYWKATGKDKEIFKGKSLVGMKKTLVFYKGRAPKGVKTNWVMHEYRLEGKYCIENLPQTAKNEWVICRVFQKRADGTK

GST-ANAC019 NAC domain = biological target: T7, GST-ANAC019 NAC domain (UniProt Q9C932)
T7 sequence: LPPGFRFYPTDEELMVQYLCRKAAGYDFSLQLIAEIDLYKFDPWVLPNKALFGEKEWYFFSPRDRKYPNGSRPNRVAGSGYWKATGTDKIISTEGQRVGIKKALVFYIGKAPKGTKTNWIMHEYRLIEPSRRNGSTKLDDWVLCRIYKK

GST-NAP(1-166) = biological target: T8, GST-NAP(1-166) (UniProt O49255)
T8 sequence: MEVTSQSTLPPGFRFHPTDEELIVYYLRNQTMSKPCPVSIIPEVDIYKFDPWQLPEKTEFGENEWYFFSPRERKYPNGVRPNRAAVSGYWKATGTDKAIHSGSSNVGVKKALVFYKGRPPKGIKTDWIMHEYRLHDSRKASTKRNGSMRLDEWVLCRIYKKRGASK

GST-NST2(1-184) = biological target: T9, GST-NST2(1-184) (UniProt Q9M274)
T9 sequence: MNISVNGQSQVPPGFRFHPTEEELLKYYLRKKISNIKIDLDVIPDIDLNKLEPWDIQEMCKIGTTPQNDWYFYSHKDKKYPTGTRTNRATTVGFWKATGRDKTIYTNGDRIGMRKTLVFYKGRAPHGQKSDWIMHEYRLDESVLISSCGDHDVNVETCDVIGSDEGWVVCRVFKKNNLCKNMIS

GST-NTL8 NAC domain = biological target: T10, GST-NTL8 NAC domain (UniProt Q9XIN7)
T10 sequence: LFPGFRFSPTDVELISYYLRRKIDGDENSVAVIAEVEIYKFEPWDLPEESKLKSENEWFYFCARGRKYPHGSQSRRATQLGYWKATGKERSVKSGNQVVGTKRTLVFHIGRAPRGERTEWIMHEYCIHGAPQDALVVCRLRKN

GST-VND3 NAC domain = biological target: T11, GST-VND3 NAC domain (UniProt Q9FH59)
T11 sequence: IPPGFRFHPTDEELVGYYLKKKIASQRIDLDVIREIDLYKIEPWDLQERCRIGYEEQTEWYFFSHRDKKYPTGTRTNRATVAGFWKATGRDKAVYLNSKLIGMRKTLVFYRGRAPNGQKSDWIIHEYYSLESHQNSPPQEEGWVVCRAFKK

GST-VND7 NAC domain = biological target: T12, GST-VND7 NAC domain (UniProt Q9C8W9)
T12 sequence: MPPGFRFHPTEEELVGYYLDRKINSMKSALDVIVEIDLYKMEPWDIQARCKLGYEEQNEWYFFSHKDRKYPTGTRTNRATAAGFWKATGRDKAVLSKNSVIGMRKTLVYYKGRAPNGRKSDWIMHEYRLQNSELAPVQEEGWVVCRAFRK

Sequence | binding signal (GST-NTL6(1-168)) [E-score] | binding signal (GST-ANAC055(1-171)) [E-score] | binding signal (GST-ATAF1 NAC domain) [E-score] | binding signal [1] [E-score] | binding signal (GST-SND1(1-203)) [E-score] | binding signal [2] [E-score] | binding signal (GST-WRKY1(266-371)) [E-score] | binding signal (GST-ANAC092(1-176)) [E-score] | binding signal (GST-ANAC019 NAC domain) [E-score] | binding signal (GST-NAP(1-166)) [E-score] | binding signal (GST-NST2(1-184)) [E-score] | binding signal (GST-NTL8 NAC domain) [E-score] | binding signal (GST-VND3 NAC domain) [E-score] | binding signal (GST-VND7 NAC domain) [E-score]
AGGGTAAG | 0.245 | -0.0223 | -0.0198 | 0.0319 | 0.111 | 0.119 | 0.0221 |  |  |  |  |  |  | 
AATGTCAA | -0.0779 |  |  | -0.0466 | -0.133 | 0.0651 | 0.404 | -0.206 | -0.123 | 0.13 | 0.0715 | -0.0377 |  | 
ACGCTACA | 0.051 |  |  |  | 0.402 | 0.137 | -0.0858 |  | -0.0101 |  | 0.249 | 0.00254 |  | 
GCAAGTAA |  |  |  |  | 0.352 | -0.0357 | -0.0549 |  | 0.211 |  | 0.223 |  |  | 
GTTTCTTA |  |  |  |  | 0.33 | 0.153 | -0.0659 |  | 0.141 | -0.0134 |  |  |  | 
TAAGAAAA | 0.454 | 0.129 |  |  | 0.301 | 0.192 | -0.012 |  | 0.0133 | -0.0758 | 0.235 |  |  | 
ACACGGCT | -0.161 |  | 0.264 |  | 0.0366 | -0.159 | -0.0991 | 0.181 |  |  | 0.0146 | -0.0406 |  | 
CTTTACGC | 0.00768 | 0.0208 | 0.0445 | 0.302 | 0.408 | 0.096 | -0.00656 |  |  |  | 0.193 | 0.0449 |  | 
CTAAGTTA | 0.393 |  |  | 0.279 | 0.413 | 0.0334 | -0.122 |  | 0.0346 | -0.0635 | 0.282 | -0.00579 |  | 
ACGGCACC | -0.0235 |  |  |  | 0.237 | 0.0254 | -0.17 |  |  |  |  | -0.0363 |  | 
ACAGTCAA | 0.0103 |  | 0.081 | 0.0848 | 0.0376 | 0.0235 | 0.477 |  | 0.028 |  | 0.00331 | 0.164 |  | 
GTTGACAA | 0.00179 |  |  |  | 0.0265 | 0.0415 | 0.446 | -0.0951 | -0.0316 | 0.116 | -0.00464 | -0.0511 |  | 
GCACGCAA | -0.133 | 0.396 |  |  | 0.456 | -0.0583 | -0.152 |  | 0.458 |  | 0.405 | 0.0319 |  | 
ACGGCACG | -0.073 |  |  |  | 0.0651 | -0.086 | -0.126 |  |  |  |  | -0.157 |  | 
GCACGGTA | -0.0375 |  |  | 0.408 | 0.0103 | -0.0537 | -0.048 |  | 0.2 |  | -0.0201 | -0.0442 |  | 
GTGGAGTA |  | 0.0843 |  |  | 0.402 | 0.088 | -0.0342 |  | -0.0416 |  |  | 0.0472 |  | 
GCTAAGCA | 0.411 | -0.133 | -0.248 | -0.0522 |  | -0.177 | -0.213 | 0.0197 | -0.0557 | -0.0615 |  | -0.101 | -0.0632 | -0.00704
